How the values were obtained:
Conditions in all cases: ranking among huAbF46-H4-A1, -A2, -A3, -A5
Akt = Akt phosphorylation by anti-c-Met antibodies; format: cell-based
c-Met [1] = target: T1, c-Met (Homo sapiens, UniProt P08581); assay: c-Met degradation degree by anti-c-Met antibodies; format: cell-based
c-Met [2] = target: T1, c-Met; assay: Affinity for c-Met of anti-c-Met antibodies; format: binding

T1 sequence (P08581 25-1390): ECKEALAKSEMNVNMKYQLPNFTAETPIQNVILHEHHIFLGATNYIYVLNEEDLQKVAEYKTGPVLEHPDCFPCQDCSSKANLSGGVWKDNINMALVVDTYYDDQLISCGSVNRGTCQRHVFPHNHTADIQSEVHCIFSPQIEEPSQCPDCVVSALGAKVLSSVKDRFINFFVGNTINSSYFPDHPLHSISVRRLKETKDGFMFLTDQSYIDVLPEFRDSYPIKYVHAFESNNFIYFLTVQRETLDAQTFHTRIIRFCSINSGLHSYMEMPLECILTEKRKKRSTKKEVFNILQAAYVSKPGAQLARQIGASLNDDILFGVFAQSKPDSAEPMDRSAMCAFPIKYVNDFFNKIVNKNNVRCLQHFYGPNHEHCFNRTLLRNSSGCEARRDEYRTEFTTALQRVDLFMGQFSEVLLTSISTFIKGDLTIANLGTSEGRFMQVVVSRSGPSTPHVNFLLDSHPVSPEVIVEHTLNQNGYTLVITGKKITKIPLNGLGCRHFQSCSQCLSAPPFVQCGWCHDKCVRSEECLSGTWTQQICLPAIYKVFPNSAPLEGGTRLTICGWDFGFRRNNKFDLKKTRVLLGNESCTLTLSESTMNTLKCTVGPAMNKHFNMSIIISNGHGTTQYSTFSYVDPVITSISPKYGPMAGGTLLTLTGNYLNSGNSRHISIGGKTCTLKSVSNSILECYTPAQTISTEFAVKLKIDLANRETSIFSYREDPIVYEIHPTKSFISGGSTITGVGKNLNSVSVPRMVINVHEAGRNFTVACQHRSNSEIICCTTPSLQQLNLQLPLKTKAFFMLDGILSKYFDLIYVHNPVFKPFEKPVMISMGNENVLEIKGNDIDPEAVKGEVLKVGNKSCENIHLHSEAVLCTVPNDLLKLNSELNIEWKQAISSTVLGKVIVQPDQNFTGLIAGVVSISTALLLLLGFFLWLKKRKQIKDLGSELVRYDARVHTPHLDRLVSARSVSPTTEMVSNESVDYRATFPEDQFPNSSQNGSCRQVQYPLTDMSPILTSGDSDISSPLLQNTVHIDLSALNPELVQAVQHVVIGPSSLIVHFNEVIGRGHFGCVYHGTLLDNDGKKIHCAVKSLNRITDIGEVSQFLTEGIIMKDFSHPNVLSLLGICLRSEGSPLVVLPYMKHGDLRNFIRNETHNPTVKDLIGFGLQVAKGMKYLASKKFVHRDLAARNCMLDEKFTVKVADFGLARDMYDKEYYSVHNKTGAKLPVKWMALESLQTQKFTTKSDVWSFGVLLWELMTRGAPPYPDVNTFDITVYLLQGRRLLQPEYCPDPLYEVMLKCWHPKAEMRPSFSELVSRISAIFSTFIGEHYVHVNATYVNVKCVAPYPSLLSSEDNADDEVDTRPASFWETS

B1: huAbF46-H4-A1: affinity-matured humanized anti-c-Met antibody, L3-1 origin (antibody)
heavy: EVQLVESGGGLVQPGGSLRLSCAASGFTFTDYYMSWVRQAPGKGLEWLGFIRNKANGYTTEYSASVKGRFTISRDNSKNTLYLQMNSLRAEDTAVYYCARDNWFAYWGQGTLVTVSSASTKGPSVFPLAPSSKSTSGGTAALGCLVKDYFPEPVTVSWNSGALTSGVHTFPAVLQSSGLYSLSSVVTVPSSSLGTQTYICNVNHKPSNTKVDKKVEPKSCDCH[letters of human IgG1 Fc omitted]
light: DIQMTQSPSSLSASVGDRVTITCKSSQSLLASGNQNNYLAWHQQKPGKAPKMLIIWASTRVSGVPSRFSGSGSGTDFTLTISSLQPEDFATYYCQQSYSRPYTFGQGTKVEIKRTVAAPSVFIFPPSDEQLKSGTASVVCLLNNFYPREAKVQWKVDNALQSGNSQESVTEQDSKDSTYSLSSTLTLSKADYEKHKVYACEVTHQGLSSPVTKSFNRGEC
Akt
  Akt phosphorylation among the four affinity-matured antibodies: lowest
c-Met [1]
  c-Met degradation degree among the four affinity-matured antibodies: lowest
c-Met [2]
  affinity for c-Met among the four affinity-matured antibodies: highest
